# Source: PubChem BioAssay (Tox21)
# Inconclusive results, whose numbers are uncertain, are shown with a selection of clear calls. For part of these data: No potency is given beside an inconclusive call; the fits are too rough. Active and inactive are the calls of the source. Unless noted, calls come from the whole dose curve; as a rule, active = well fitted curve in the direction sought with a large enough effect in the repeat runs; inconclusive = weak or mixed curves; inactive = no such curve, though single readings can be large; an effect the other way counts as inactive or inconclusive.
# Key:
# [1] = qHTS assay for identifying genotoxic compounds that show differential cytotoxicity against isogenic chicken DT40 cell lines with known DNA damage response pathways - wild type cell line (AID 743012); details: DT40 wild type chicken cells viability, CellTiter-Glo, 40 h; activity change, negative = cytotoxicity: at 68.4 µM (top of the series) unless noted; note: nearly all actives have a fitted effect of over 60% in size; note: potency is the fitted concentration of half-maximal effect; for activity change, negative = cytotoxicity: % is set by controls: 0 for no effect and ±100 for the full control effect
# Method in brief: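 Viability of DNA repair-proficient chicken DT40 cells was assessed by CellTiter-Glo luminescence following 40 h compound exposure at 37 C/5% CO2.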
# [2] = qHTS assay for identifying genotoxic compounds that show differential cytotoxicity against isogenic chicken DT40 cell lines with known DNA damage response pathways - Rev3 mutant cell line (AID 743014); details: chicken DT40 Rev3-/- viability, CellTiter-Glo, 40 h; activity, negative = cytotoxicity: at 68.4 µM (top of the series) unless noted; note: potency is the fitted concentration of half-maximal effect; nearly all actives have a fitted effect of over 55% in size
# [3] = qHTS assay for identifying genotoxic compounds that show differential cytotoxicity against isogenic chicken DT40 cell lines with known DNA damage response pathways - Rad54/Ku70 mutant cell line (AID 743015); details: DT40 Rad54/Ku70 mutant viability, CellTiter-Glo, 40 h; activity change, negative = cytotoxicity: at 66.8 µM (top of the series); note: potency is the fitted concentration of half-maximal effect; nearly all actives have a fitted effect of over 60% in size
# Aromatase (Homo sapiens) = Aromatase (Homo sapiens) (UniProt P11511); experiment: qHTS assay to identify aromatase inhibitors (AID 743083); details: MCF-7 aro ERE, testosterone-driven ERE luciferase, 24 h; series mostly up to 70.3 µM; note: potency is the fitted concentration of half-maximal effect; nearly all actives have a fitted effect of over 55% in size
# Sequence of UniProt P11511 (P11511 whole entry, looked up): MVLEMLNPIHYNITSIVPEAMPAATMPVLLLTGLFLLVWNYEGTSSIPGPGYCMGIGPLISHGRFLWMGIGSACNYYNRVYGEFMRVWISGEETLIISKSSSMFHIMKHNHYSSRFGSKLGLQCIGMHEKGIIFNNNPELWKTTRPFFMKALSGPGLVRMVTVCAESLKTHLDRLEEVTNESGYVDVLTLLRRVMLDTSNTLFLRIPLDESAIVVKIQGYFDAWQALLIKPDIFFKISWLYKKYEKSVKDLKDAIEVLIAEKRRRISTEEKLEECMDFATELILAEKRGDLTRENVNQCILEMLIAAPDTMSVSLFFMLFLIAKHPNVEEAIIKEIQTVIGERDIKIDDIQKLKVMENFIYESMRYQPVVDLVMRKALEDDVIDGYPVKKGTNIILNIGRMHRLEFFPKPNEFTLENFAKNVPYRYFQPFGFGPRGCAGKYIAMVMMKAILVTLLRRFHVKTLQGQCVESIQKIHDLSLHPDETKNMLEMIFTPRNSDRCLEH
# [4] = qHTS assay to identify small molecule antagonists of the androgen receptor (AR) signaling pathway - cell viability counter screen (AID 743033; note: % is set by controls: 0 for no effect and ±100 for the full control effect; nearly all actives have a fitted effect of over 45% in size); details: AR-bla HEK293 viability, CellTiter-Glo luminescence, 16 h; activity change, negative = cytotoxicity: at 58.5 µM (top of the series)
# [5] = target: Estrogen receptor (Homo sapiens) (UniProt P03372); experiment: qHTS assay to identify small molecule agonists of the estrogen receptor alpha (ER-alpha) signaling pathway using the BG1 cell line (AID 743079); details: BG1Luc4E2 cells, ERE-luciferase agonist, 22 h; activation: at 70.3 µM (top of the series) unless noted; note: nearly all actives have a fitted effect of over 20% in size; note: potency is the fitted concentration of half-maximal effect; for activation: % is set by controls: 0 for no effect and ±100 for the full control effect
# Sequence of UniProt P03372 (P03372 whole entry, looked up): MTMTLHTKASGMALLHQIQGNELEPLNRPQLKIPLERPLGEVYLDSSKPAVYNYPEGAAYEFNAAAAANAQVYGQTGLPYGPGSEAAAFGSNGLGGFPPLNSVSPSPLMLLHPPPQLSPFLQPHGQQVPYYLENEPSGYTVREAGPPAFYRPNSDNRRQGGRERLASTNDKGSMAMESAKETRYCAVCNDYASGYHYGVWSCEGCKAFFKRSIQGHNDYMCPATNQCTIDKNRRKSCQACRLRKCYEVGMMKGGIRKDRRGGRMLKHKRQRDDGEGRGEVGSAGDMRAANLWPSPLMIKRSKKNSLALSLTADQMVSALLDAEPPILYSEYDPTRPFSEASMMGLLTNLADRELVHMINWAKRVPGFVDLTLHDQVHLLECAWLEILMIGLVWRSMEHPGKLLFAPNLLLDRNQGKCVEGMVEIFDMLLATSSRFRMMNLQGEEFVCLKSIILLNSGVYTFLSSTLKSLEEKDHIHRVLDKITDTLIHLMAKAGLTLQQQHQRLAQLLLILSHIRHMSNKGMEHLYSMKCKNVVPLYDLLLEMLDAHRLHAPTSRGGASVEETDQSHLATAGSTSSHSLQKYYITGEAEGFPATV
# [6] = qHTS assay to identify aromatase inhibitors - cell viability counter screen (AID 743084); details: MCF-7 aro ERE viability, CellTiter-Fluor, 24 h; activity change, negative = cytotoxicity: at 70.3 µM (top of the series);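 note: cells stimulated with testosterone during compound exposure; % is set by controls: 0 for no effect and ±100 for the full control effect; nearly all actives have a fitted effect of over 55% in size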
# [7] = qHTS assay to identify small molecule antagonists of the estrogen receptor alpha (ER-alpha) signaling pathway - cell viability counter screen (AID 743074; calls by dose curve;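 note: HEK293 cells carrying ER-alpha-UAS-bla reporter stimulated with 17beta-estradiol; potency is the fitted concentration of half-maximal effect; nearly all actives have a fitted effect of over 45% in size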); details: ERalpha-bla HEK293 viability, CellTiter-Glo luminescence, 18 h; series mostly up to 69.4 µM
# [8] = qHTS assay to identify small molecule antagonists of the estrogen receptor alpha (ER-alpha) signaling pathway using the BG1 cell line - cell viability counter screen (AID 743081); details: BG1Luc4E2 viability, CellTiter-Fluor, 22 h; series mostly up to 70.3 µM;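 note: compound given together with 17beta-estradiol as the ER stimulus; potency is the fitted concentration of half-maximal effect; nearly all actives have a fitted effect of over 45% in size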
# [9] = target: Estrogen receptor (Homo sapiens) (UniProt P03372); experiment: qHTS assay to identify small molecule agonists of the estrogen receptor alpha (ER-alpha) signaling pathway (AID 743075; calls by dose curve;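 note: HEK293 GripTite cells with ER-alpha and UAS-driven beta-lactamase reporter; % is set by controls: 0 for no effect and ±100 for the full control effect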); details: HEK293 ER-alpha-UAS-bla, beta-lactamase FRET ratio, 18 h; series mostly up to 70.1 µM
# Tags give direction and shape of the fitted curve.
smiles,measurement,setting,value
C/C=C(\C)C(=O)OCCC(C)CCC=C(C)C (centres undefined),Potency,[1],inactive
same,Potency,[2],"inconclusive [cytotoxic, single point]"
same,Potency,[3],"inconclusive [cytotoxic, single point]"
same,Potency,Aromatase (Homo sapiens),"inconclusive [inhibitor, partial curve, poor fit]"
CC(=O)C(=O)CC(C)C,Potency,[1],inactive
same,Potency,[2],"inconclusive [cytotoxic, partial curve, poor fit]"
same,Potency,[4],inactive
same,Potency,[5],active: 34.2 µM
same,Potency,[6],inactive
C=Cc1ccccc1C=C,Potency,[1],"inconclusive [cytotoxic, partial curve, poor fit]"
same,Potency,[2],"inconclusive [cytotoxic, partial curve]"
same,Potency,[3],"inconclusive [cytotoxic, full curve]"
same,Potency,[7],"inconclusive [cytotoxic, full curve]"
COc1ccc([C@@H]2Sc3ccccc3N(CCN(C)C)C(=O)[C@@H]2OC(C)=O)cc1,Potency,[1],"inconclusive [cytotoxic, full curve]"
same,Potency,[2],"inconclusive [cytotoxic, single point]"
same,Potency,[3],"inconclusive [cytotoxic, single point]"
same,Potency,[7],"inconclusive [cytotoxic, single point]"
same,Potency,[8],"inconclusive [cytotoxic, single point]"
CC(C)(C)C(O)/C=C/c1ccc2c(c1)OCO2 (centres undefined),Potency,[1],"inconclusive [cytotoxic, single point]"
same,Potency,[2],"inconclusive [cytotoxic, partial curve]"
same,Potency,[3],"inconclusive [cytotoxic, single point]"
same,Potency,[9],inactive
same,activation,[5],inconclusive: 14.4% [phenotype inactive]
same,Potency,[8],"inconclusive [rising, full curve]"
